# Experimental data published in article PMC12350791.
# Biological target: T1, Translin-associated protein X (UniProt Q99598)
# T1 sequence: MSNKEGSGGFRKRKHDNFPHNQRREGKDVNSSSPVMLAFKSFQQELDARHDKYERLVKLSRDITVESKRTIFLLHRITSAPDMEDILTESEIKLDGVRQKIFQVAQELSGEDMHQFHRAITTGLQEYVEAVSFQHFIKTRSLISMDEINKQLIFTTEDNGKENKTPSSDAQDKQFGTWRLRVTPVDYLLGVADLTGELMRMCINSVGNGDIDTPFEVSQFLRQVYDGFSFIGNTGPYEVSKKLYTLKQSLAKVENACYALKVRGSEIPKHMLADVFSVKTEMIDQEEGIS
# Test: cross-linking mass spectrometry
substance,measurement,value
Translin,listed as a hit,yes
